In experiment [1] the target is T1, dGATOR2 complex, transiently expressed in HEK-293T cells (D. melanogaster) (UniProt Q9VKK2+Q9XZ25+Q9VQ89+Q7K2X8+Q9V3J4). The experiment is described as follows: condition: only with 1 mM SAM added to the immunoprecipitates; co-IP; in vitro dissociation: 1 mM SAM added directly to the FLAG immunoprecipitates from HEK-293T cells, 30 min, 4 C, cytosolic buffer (0.1% Triton, 40 mM HEPES pH 7.4, 10 mM NaCl, 150 mM KCl, 2.5 mM MgCl2).

The chains behind the UniProt entries cited, without tags or fusion partners. Where a name states a change or a piece, a line headed by the entry shows the natural chain unless it says otherwise.
UniProt Q9VKK2: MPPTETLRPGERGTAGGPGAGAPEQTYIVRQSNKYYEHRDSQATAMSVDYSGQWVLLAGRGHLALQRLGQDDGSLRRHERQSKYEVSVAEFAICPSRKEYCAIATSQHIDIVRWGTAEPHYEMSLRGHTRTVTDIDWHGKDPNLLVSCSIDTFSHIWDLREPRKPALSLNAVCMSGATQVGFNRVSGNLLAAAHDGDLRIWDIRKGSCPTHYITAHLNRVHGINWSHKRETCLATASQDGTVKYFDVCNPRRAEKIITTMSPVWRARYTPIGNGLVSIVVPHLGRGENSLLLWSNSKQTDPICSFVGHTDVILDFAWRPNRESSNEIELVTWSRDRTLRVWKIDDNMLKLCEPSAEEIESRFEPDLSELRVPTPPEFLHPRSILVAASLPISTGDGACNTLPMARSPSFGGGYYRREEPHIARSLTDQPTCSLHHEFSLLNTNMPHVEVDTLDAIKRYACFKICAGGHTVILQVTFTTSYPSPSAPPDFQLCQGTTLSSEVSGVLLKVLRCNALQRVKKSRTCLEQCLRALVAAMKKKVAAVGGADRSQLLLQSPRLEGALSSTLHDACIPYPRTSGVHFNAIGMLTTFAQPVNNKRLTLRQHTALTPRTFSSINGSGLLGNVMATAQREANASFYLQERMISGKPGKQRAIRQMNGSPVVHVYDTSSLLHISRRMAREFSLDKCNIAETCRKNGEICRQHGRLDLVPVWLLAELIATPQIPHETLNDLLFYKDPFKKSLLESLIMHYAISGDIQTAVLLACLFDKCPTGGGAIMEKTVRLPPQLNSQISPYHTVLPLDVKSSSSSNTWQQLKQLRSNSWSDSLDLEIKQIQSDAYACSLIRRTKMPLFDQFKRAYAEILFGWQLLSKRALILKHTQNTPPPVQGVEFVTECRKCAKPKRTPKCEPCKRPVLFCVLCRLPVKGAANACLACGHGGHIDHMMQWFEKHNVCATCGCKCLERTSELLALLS
UniProt Q9XZ25: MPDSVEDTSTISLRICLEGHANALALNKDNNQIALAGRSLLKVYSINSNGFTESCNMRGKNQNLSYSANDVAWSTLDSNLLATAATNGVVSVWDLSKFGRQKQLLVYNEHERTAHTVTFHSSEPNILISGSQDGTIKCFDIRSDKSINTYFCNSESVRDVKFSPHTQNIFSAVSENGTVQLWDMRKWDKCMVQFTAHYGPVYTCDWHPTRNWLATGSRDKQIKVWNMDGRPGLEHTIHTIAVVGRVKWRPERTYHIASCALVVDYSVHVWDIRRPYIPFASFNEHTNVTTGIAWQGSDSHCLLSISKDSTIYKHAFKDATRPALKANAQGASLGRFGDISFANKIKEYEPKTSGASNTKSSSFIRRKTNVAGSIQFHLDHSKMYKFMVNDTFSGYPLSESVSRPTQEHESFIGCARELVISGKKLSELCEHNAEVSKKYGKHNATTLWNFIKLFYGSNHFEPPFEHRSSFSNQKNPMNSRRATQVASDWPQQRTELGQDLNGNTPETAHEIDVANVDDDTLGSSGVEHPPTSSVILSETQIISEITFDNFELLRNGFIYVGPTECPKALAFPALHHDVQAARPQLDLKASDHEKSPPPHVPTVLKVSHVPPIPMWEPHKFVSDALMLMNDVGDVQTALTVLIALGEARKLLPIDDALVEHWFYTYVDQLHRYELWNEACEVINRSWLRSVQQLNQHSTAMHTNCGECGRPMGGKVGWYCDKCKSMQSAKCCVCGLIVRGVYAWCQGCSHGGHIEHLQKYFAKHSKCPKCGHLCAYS
UniProt Q9VQ89: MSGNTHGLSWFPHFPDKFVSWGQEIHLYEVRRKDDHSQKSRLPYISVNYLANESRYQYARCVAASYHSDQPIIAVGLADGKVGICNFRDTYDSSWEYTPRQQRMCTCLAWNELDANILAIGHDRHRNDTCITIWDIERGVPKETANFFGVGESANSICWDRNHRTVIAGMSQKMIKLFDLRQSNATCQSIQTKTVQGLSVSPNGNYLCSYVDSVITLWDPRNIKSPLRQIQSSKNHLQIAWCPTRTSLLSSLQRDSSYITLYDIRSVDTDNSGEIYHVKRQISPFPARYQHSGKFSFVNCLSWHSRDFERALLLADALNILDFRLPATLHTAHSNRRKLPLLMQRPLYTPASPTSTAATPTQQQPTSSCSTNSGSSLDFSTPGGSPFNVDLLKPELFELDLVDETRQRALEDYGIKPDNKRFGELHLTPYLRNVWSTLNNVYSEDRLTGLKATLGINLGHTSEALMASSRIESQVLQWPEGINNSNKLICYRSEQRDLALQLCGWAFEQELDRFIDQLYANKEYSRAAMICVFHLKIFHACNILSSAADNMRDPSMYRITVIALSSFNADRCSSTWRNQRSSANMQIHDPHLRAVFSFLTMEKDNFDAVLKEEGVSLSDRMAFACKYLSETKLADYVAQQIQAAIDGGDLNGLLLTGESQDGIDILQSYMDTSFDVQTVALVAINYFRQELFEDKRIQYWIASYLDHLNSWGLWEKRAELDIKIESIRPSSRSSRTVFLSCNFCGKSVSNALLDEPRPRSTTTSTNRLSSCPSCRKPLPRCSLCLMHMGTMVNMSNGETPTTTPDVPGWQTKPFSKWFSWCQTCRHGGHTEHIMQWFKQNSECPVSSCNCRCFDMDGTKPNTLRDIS
UniProt Q7K2X8: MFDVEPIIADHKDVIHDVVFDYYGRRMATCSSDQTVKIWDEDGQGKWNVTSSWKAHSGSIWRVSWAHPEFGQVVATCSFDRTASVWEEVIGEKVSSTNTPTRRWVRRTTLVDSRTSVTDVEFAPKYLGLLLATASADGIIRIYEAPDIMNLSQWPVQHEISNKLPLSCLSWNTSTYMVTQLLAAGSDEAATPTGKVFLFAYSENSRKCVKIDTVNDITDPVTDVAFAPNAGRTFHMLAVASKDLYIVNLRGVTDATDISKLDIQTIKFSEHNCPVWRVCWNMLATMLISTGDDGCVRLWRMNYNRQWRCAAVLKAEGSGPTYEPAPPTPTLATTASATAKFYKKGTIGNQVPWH
UniProt Q9V3J4: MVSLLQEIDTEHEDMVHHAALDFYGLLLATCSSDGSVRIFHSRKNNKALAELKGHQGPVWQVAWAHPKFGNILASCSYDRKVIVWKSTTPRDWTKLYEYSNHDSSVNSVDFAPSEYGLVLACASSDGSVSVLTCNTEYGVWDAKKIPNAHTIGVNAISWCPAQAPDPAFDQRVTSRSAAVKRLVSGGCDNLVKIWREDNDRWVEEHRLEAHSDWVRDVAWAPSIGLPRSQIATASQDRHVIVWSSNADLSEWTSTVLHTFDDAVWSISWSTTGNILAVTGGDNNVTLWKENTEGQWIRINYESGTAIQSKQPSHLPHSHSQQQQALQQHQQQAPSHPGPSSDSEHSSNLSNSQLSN

For experiment [2], the target named is dWDR24-Mio-Nup44A subcomplex (D. melanogaster) (UniProt Q9XZ25+Q9VQ89+Q7K2X8). The experiment is described as follows: co-IP; individual dGATOR2 subunits and subcomplexes tested for co-immunoprecipitation of Unmet (Supplementary Fig. 5a); details not shown.
Experiment [3] addresses T1, dGATOR2 complex, transiently expressed in HEK-293T cells (D. melanogaster). The experiment is described as follows: co-IP; anti-FLAG immunoprecipitates from HEK-293T cells transiently expressing FLAG-tagged GATOR2 and the sensor cDNAs; full RPMI or RPMI lacking leucine, methionine or amino acids; SAH or carnosine added to the immunoprecipitates had no effect.
The target is the same in experiment [4]. The experiment is described as follows: co-IP; in vitro dissociation: a mixture with 1 mM of each amino acid added directly to the FLAG immunoprecipitates from HEK-293T cells.
For experiment [5] the target is unchanged. The experiment is described as follows: co-IP; in vitro dissociation: sinefungin (SFG; 1 mM in Fig. 3d) added directly to the FLAG immunoprecipitates from HEK-293T cells, 30 min, 4 C, cytosolic buffer.
Experiment [6] shares this target. The experiment is described as follows: co-IP; in vitro dissociation: 1 mM SAM added directly to the FLAG immunoprecipitates from HEK-293T cells, 30 min, 4 C, cytosolic buffer (0.1% Triton, 40 mM HEPES pH 7.4, 10 mM NaCl, 150 mM KCl, 2.5 mM MgCl2).
The target is the same in experiment [7]. The experiment is described as follows: condition: only with a mixture containing 1 mM of each amino acid; co-IP; in vitro dissociation: a mixture with 1 mM of each amino acid added directly to the FLAG immunoprecipitates from HEK-293T cells.

Residue numbers refer to the chain shown, from its start. Names and notes keep the numbering of the source. Results are given in words; binding and its absence hold for the method and conditions named. In cells and extracts the contact can be indirect. Some entries that bind do so weakly or less than the wild type. For part of these data: Where a sequence is shown, tags or fusion partners need not be part of it.

B1: HA-Unmet, transiently expressed in HEK-293T cells (protein, UniProt Q9I7X6 1-456)
chain: MSSMDCATFPMHPKMDEQLARTFVINEEEEEKHIQKVQNAFLYYGPYACQRLKRSMDYLNSLSGEDQIMLAKYRGHLECVRTCIDRNQAVIREILRGRVLYPTDEATGDPSEFDEPPPNVRHGDMDQIDIPFDEADVEPLKILKAQSTLKLIARDWSTEGALEREQSYKPIIDSIVAYFKHSDFELKDIKILVPGAGLGRLTYELACLGYSCEGNEFSYFMLIASNFVLNLCDNENKYVLYPWVHQYVNNLRREDQVAPVRFPDVCPLKNPPKGHFEIAAGDFLEVYKTPNAYNCVATCFFIDCANNVIDFIRTIYKILVPGGIWVNLGPLLYHFSDVSGQNSIEPAFEDLCIIMESVGFVIEKSRTGIRTKYAQNPSSMKQSEYQSLFWVCRKPDLFEEQRGKRKASREPHDLIVREDSEEEGEQQPERNETEEKQQLKPLATANCETEIKEQPS
On to B1, for which the binding entry in experiment [1] was “no binding”; in experiment [2] it was “binds”; in experiment [3] it was “binds”; in experiment [4], “binds”; in experiment [5] it was “no binding (condition: with sinefungin (SFG))”.

B2: Unmet E30A (protein, UniProt Q9I7X6 1-456)
chain: B1 chain with E30A
Take B2: the binding entry in experiment [3] is given as “no binding”.

B3: Unmet G195D (protein, UniProt Q9I7X6 1-456)
chain: B1 chain with G195D
For the molecule B3, the binding result in experiment [6], in experiment [3] and in experiment [5] was “binds” throughout.

B4: dSestrin, transiently expressed in HEK-293T cells (protein, UniProt Q9W1K5 1-497)
chain: MYYAVDYYADMGQISQDCFAATQTGASDFDMDELDDLDQVTQVIGYHPQFHDHFLATQNFIMKGDGPLPNDYRYYLAIIAAARHQCPYLVKRYEKEFINQGGDSAWLGGLDFIPAKLRAIYDINKILAHRPWLLRKEHIERLTKGKNSWSLSEVVHAMVLLSHFHSLSSFVFSCGLTQKLDGLSSPKLKSPPAAVAALAPTILITPTSPTEPQKGKPVLAEISLNNANPDYDSQTAASSNGGAPPDSANAVADGPDATTLNGYLATAQQLPQQHGISVETLMERMKVLSQKQDECSEAELSSRFQKVEQQTAELAAVTPEAAVGVPTNLSHYVDDANFIYQDFARRGTESINTFRIQDYSWEDHGYSLVDGLYNDVGIFLDAKFRAAYNLTYCTMGGIKNVDTSKFRRAIWNYIQCIYGIRHDDYDYGEVNQLLVRPLKMFIKTACCFPERITTKDYDSVLVELQDSEKVHVNLMIMEARNQAELLYALREIMRYMT
Consider B4, for which the results for the binding result in experiment [6], in experiment [3] and in experiment [7] were “binds”, “binds” and “no binding”, respectively.

For the origin of these results see article PMC10957897, “An evolutionary mechanism to assimilate new nutrient sensors into the mTORC1 pathway” (Nature Communications, 2024).
